# Experimental data taken from PubChem BioAssay AID1466 (National Center for Advancing Translational Sciences (NCATS), 2008).
# Out of some 200,000 compounds screened, about 10 (0.005%) were called active. Inconclusive results, whose numbers are uncertain, are shown with a selection of clear calls. The call rests on the fitted dose curve; in most records, active means well fitted inhibition curve with a large enough effect; inconclusive means small, poorly fitted or top-dose-only effect, or effect the other way, or another doubt; inactive means no such curve, though single readings can be large or run the other way. Potencies of inconclusive entries are left out as doubtful fits.
# Target: Lysosomal alpha-glucosidase (Homo sapiens) (UniProt P10253)
# Assay: qHTS Assay for Inhibitors of Human alpha-Glucosidase as a Potential Chaperone Treatment of Pompe Disease;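 on activity change, negative = inhibition: plate controls were uninhibited enzyme wells for no effect and no-enzyme background for full effect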
# Conditions: purified human GAA, 4-MU-alpha-glucoside fluorescence; activity change, negative = inhibition: at 76.9 µM (top of the series) unless noted
# In short: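 Compounds are titrated up to 77 uM against 4 nM human enzyme. Substrate 4-methylumbelliferyl-alpha-D-pyranoside (400 uM) reacts 20 min at room temperature in pH 5.0 buffer; liberated 4-methylumbelliferone is read at 440 nm.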
# Potency means the concentration at half of the fitted maximal effect; tags describe the fitted curve by direction and shape.
SMILES,Potency,"activity change, negative = inhibition"
CCOC(=O)N1CCN(c2c(-c3ccc(C(C)C)cc3)c(=O)c2=O)CC1,"inconclusive [inhibitor, single point]",
CCOCCCn1cnc2c(c1=O)c1nc3ccccc3nc1n2-c1ccccc1,,inconclusive: -16.3% [inhibitor]
CCOC(=O)c1ccccc1NC(=O)c1ccc(N(C)S(C)(=O)=O)cc1,"inconclusive [inhibitor, single point]",
CCOc1ccccc1CN1CCN(Cc2cc3ccccc3[nH]2)CC1CCO (stereo unspecified),,inconclusive: 16.5% [activator]
O=C(C[n+]1ccc(-c2nnc3n2CCC3)cc1)c1ccc(Cl)cc1,"inconclusive [inhibitor, partial curve, poor fit]",
CCOC(=O)CNC(=O)c1ccc2[nH]c3ccccc3c2c1,"inconclusive [inhibitor, single point]",
Cc1cc(/C=C(\C#N)C(=O)NCc2ccco2)c(C)n1-c1ccc(C(=O)O)cc1,,inconclusive: 19.7% [activator]
CC(c1ccccc1)C1CC(=O)N(c2ccc(C(=O)O)cc2)C1=O (stereo unspecified),"inconclusive [inhibitor, single point]",
COC(=O)c1ccccc1OCCN1CCCCCC1,"inconclusive [activator, full curve, poor fit]",
Cc1onc(-c2ccccc2)c1CNS(=O)(=O)c1cccc(Cl)c1,,inactive: -2.34% [at 15.4 µM]
C=CCSC1=C(C#N)C(c2ccccc2OC)CC(=O)N1 (stereo unspecified),"inconclusive [inhibitor, single point]",
CCOc1ccccc1NC(=O)N1CCCC(c2nc3c(nnn3Cc3ccc(C)cc3)c(=O)[nH]2)C1 (stereo unspecified),"inconclusive [inhibitor, partial curve, poor fit]",
O=C(O)c1ccccc1SCc1cn2cc(Br)ccc2n1,,inconclusive: 15.9% [activator]
CCN1CCN(C(=O)c2sc3nc(C)nc(N4CCC(C)CC4)c3c2C)CC1,"inconclusive [inhibitor, partial curve, poor fit]",
NC(=O)N/N=C/c1coc2ccc(O)cc2c1=O,inactive,
CC1CCN(c2cc(N3CCOCC3)c([N+](=O)[O-])cc2F)CC1,"inconclusive [inhibitor, single point]",
O=C(NCCN1C(=O)CSC1=O)c1ccccc1,"inconclusive [inhibitor, single point]",
Cc1cn(CCC(=O)Nc2ccc(N3CCOCC3)cc2)c2ccccc12,"inconclusive [inhibitor, full curve, poor fit]",
COc1ccc2[nH]c(=O)c(CN(CC3CCCO3)C(=S)Nc3ccc(C)cc3)cc2c1 (stereo unspecified),,inconclusive: 16.6% [activator]
COc1ccccc1NC(=O)CSc1nc(N)cc(N)n1,"inconclusive [inhibitor, single point]",
Cc1ccc(C2NC(=O)c3c(sc4c3CCN(C)C4)N2)o1 (stereo unspecified),"inconclusive [activator, single point]",
COc1cc2c3nnc(-c4ccc(F)cc4)c-3cn(Cc3ccccc3F)c2cc1OC,inactive,

SMILES,Potency,"activity change, negative = inhibition"
Cc1ccc(C23CC4CC(CC(CC(=O)N5CCOCC5)(C4)C2)C3)cc1,"inconclusive [inhibitor, single point]",
CN(CC(=O)Nc1ccc(S(N)(=O)=O)cc1)Cc1ccccc1F,"inconclusive [activator, full curve, poor fit]",
Cc1cc([N+](=O)[O-])nn1CCC(=O)Nc1nccs1,"inconclusive [inhibitor, single point]",
Cc1ccc(S(=O)(=O)N(CC(=O)Nc2cccc([N+](=O)[O-])c2)C2CCCCC2)cc1,"inconclusive [inhibitor, partial curve]",
COC(=O)c1ccccc1NC(=O)CNc1cc(Cl)ccc1N1CCOCC1,"inconclusive [inhibitor, full curve]",
Cc1ccc(S(=O)(=O)Oc2ccc(/C=N/NC(=O)c3nn(C)cc3Cl)cc2)cc1,"inconclusive [inhibitor, single point]",
O=C1NC(C(=O)O)=CC(c2ccc([N+](=O)[O-])cc2)N1 (stereo unspecified),"inconclusive [inhibitor, single point]",
CC(=O)c1ccc2c(c1)Nc1ccccc1S2,inactive,
CNc1nnc(-c2ccc(N(C)C)cc2)s1,"inconclusive [activator, partial curve]",
Cc1ccc(N2C(=O)[C@@H]3[C@H](C2=O)[C@H]2C=CC=NN2[C@@H]3C(=O)Nc2ccccc2)cc1,,inconclusive: -16.2% [inhibitor]
Nc1[nH]ncc1-c1ccc(Cl)cc1,inactive,
Cc1csc(SCC(=O)NC23CC4CC(CC(C4)C2)C3)n1,"inconclusive [inhibitor, partial curve]",
CCN(CC)CCCNC(=O)c1cn(CCOC)c(=O)c2c1c1ccccc1n2C,"inconclusive [activator, partial curve]",
Cc1cc(OCCn2cnc3ccccc3c2=O)cc(C(C)C)c1,"inconclusive [inhibitor, single point]",
c1ccc2c(c1)OCCOCCOc1ccccc1OCCOCCO2,"inconclusive [inhibitor, single point]",
CCCn1c(=N)c(C(=O)NC2CCCC2)cc2c(=O)n3cccc(C)c3nc21,"inconclusive [activator, partial curve]",
Cc1cc(C(=O)COC(=O)c2cc(Cl)ccc2N)c(C)n1Cc1ccco1,"inconclusive [activator, single point]",
Cc1cc2nc3c(nc2cc1C)C1(C(=O)N(C)C)CCC3(C)C1(C)C (stereo unspecified),"inconclusive [inhibitor, full curve, poor fit]",
CCOc1ccc(NC(=O)N2CCC(C(N)=O)(N3CCCCC3)CC2)cc1,"inconclusive [inhibitor, partial curve]",
COCCCNC(=S)N/N=C/c1ccccc1O,,inconclusive: 17.2% [activator]
Cn1c2ccccc2c2ncn(CCCN3CCOCC3)c(=O)c21,"inconclusive [inhibitor, single point]",
O=C(CCCOc1ccccc1)N1CCN(C(=O)c2ccco2)CC1,,inconclusive: -16.5% [inhibitor]

SMILES,Potency,"activity change, negative = inhibition"
COc1ccc2c(c1)N(C(=O)CN1C(=O)C3CCCCC3C1=O)C(C)(C)C=C2C (stereo unspecified),"inconclusive [inhibitor, single point]",
CCNC(=S)SCCOc1ccccc1C,"inconclusive [inhibitor, single point]",
CCOC(=O)c1c(N)sc2c(O)c(Br)ccc12,"inconclusive [inhibitor, single point]",
O=C1CCCC2=C1C(c1cccs1)n1nc(SCc3ccccc3)nc1N2 (stereo unspecified),"inconclusive [activator, single point]",
Cc1cc(C)n(C(=O)/C(C#N)=N/Nc2cc(Cl)cc(Cl)c2)n1,,inconclusive: -16.5% [inhibitor]
CSc1nc2n(n1)C(c1ccccn1)C1=C(CC(C)(C)CC1=O)N2 (stereo unspecified),"inconclusive [activator, partial curve]",
[O-]/[N+](=C\c1ccccc1)[C@@H]1CCCC[C@@H]1/[N+]([O-])=C/c1ccccc1,inactive,
Cc1ccc(C)c(-n2nnnc2Sc2nnnn2-c2ccccc2)c1,"inconclusive [activator, full curve, poor fit]",
CC1=CC(C)=Nc2ccc(C)cc2N1,"inconclusive [inhibitor, full curve]",
COc1c(C)cc(C(=O)C2CCCN(Cc3c(C)n(C)n(-c4ccccc4)c3=O)C2)cc1C (stereo unspecified),,inconclusive: 7.81% [activator]
COc1ccc(-c2csc(NC(=O)c3cc(-c4cccs4)nc4ccccc34)n2)c(OC)c1,"inconclusive [inhibitor, full curve, poor fit]",
CC(C)(C)NC(=O)CSc1nnc(C2CC2)n1Cc1ccccc1,"inconclusive [inhibitor, single point]",
COc1cccc(-n2ccnc2SCC(=O)N2CCc3ccccc32)c1,"inconclusive [inhibitor, single point]",
COc1cc(CNCCc2c[nH]c3ccccc23)ccc1OCc1ccc(F)cc1,inactive,
CC1CN(C2=Nc3cccc4cccc2c34)CC(C)O1 (stereo unspecified),inactive,
CCNCc1ccccc1OCc1ccccc1,"inconclusive [activator, full curve]",
Cc1ccc(N(CCCCN2C(=O)c3ccccc3C2=O)C(=O)c2ccc(Cl)s2)cc1,"inconclusive [inhibitor, single point]",
CCC(Sc1nc(-c2ccccc2)c(C#N)c(=O)[nH]1)C(=O)Nc1nnc(C)s1 (stereo unspecified),"inconclusive [inhibitor, single point]",
CCOC(=O)c1c(N)sc(C(=O)N(C)C)c1C,"inconclusive [inhibitor, single point]",
C/C(CC(=O)Nc1ccc(Cl)c(C(F)(F)F)c1)=N\NC(N)=S,"inconclusive [activator, full curve, poor fit]",
COc1cc2ccccc2cc1C(=O)OCC(=O)NC1CCS(=O)(=O)C1 (stereo unspecified),"inconclusive [activator, single point]",
CCOC(=O)/C=C/C(=O)OCC(=O)Nc1ccc(Cl)cn1,inactive,
